# Test results from PubChem BioAssay (Tox21).
# “And” between values parts separate entries of the source, which are not always exact repeats. Equal values may be shown once. Inconclusive means that the source gave no clear call. Such entries were picked first, then a sample of the others. For some of these results: Where the call is inconclusive, the potency comes from a doubtful curve fit. A structure can be active in one record and inactive in another. The source made the active and inactive calls. Unless noted, calls follow the shape of the dose curve; as a rule, active = well fitted curve in the direction sought with a large enough effect in the repeat runs; inconclusive = weak or mixed curves; inactive = no such curve, though single readings can be large; an effect the other way counts as inactive or inconclusive.
# What was measured:
# [1] = qHTS assay to identify small molecule agonists of the sonic hedgehog signaling (Shh) pathway (AID 1259368; calls by dose curve; also: nearly all actives have a fitted effect of over 15% in size; also: potency is read from the fitted curve at half-maximal effect;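 as to activity change: NIH/3T3-derived 3T3Gli1-Luc cells carrying a stable Gli1-driven firefly luciferase reporter; % is scaled to controls: 0 for no effect and ±100 for the full control effect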)
# Outline: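 Hedgehog pathway agonism scored by increased firefly luciferase luminescence in 3T3Gli1-Luc cells treated 24 hr at 37 C; detection used a 30 min room-temperature reagent incubation.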
# [2] = target: Estrogen receptor beta (Homo sapiens) (UniProt Q92731); experiment: qHTS assay to identify small molecule antagonists of the estrogen receptor beta (ER-beta) signaling pathway (AID 1259378; active = well fitted inhibition curve with a large enough effect in the signal ratio in the repeat runs, not every such curve was filed as active; inconclusive = weak or mixed curves, or effect the other way; inactive = no such curve, though single readings can be large or run the other way; the % refers to the signal ratio; also: potency is read from the fitted curve at half-maximal effect; as to activity, negative = inhibition: % is scaled to controls: 0 for no effect and ±100 for the full control effect); conditions: ER-beta-UAS-bla HEK293T, beta-lactamase FRET ratio, 16 h; activity, negative = inhibition: at 92.4 µM (top of the series) unless noted
# Outline: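 ER-beta-UAS-bla HEK293T (GripTite) cells in 2% charcoal-stripped FBS medium were preincubated 6 hr at 37C, dosed with compound, then stimulated with 1 nM E2 (final) for 16 hr; beta-lactamase reporter read by B/G FRET fluorescence after 2 hr substrate loading.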
# [3] = qHTS assay to identify small molecule agonists of the estrogen receptor beta (ER-beta) signaling pathway - cell viability counter screen (AID 1259380); also: nearly all actives have a fitted effect of over 30% in size; also: potency is read from the fitted curve at half-maximal effect
# Outline: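 Measured: luminescence from CellTiter-Glo after 30 min at room temperature, added to wells already read for the LiveBLAzer FRET reporter (2 hr substrate); ER-beta-UAS-bla HEK293T cells had 16 hr compound treatment at 37C, 5% CO2.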
# [4] = target: Progesterone receptor (Homo sapiens) (UniProt P06401); experiment: qHTS assay to identify small molecule agonists of the progesterone receptor (PR) signaling pathway (AID 1346784; calls by dose curve; also: % is scaled to controls: 0 for no effect and ±100 for the full control effect; nearly all actives have a fitted effect of over 30% in size); conditions: PR-UAS-bla HEK293T, beta-lactamase FRET ratio, 16 h; activation: at 92.4 µM (top of the series) unless noted
# Outline: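 Cells (PR-UAS-bla HEK 293T, GripTite) were plated in assay medium containing 2% charcoal-stripped FBS and incubated 6 hr. Test compounds in DMSO were added for 16 hr at 37C. FRET substrate was then loaded for 2 hr at room temperature before fluorescence reading.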
# [5] = qHTS assay to identify small molecule agonists of the progesterone receptor (PR) signaling pathway - cell viability counter screen (AID 1346799; calls by dose curve; also: % is scaled to controls: 0 for no effect and ±100 for the full control effect; nearly all actives have a fitted effect of over 45% in size)
# Outline: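 Cells (PR-UAS-bla HEK293T) are plated at 3,000/well in 2% charcoal-stripped FBS medium, rested 6 hr, dosed and incubated 16 hr at 37C. CellTiter-Glo is then added and luminescence measured after 30 min at room temperature.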
# [6] = qHTS assay to identify small molecule antagonists of the sonic hedgehog signaling (Shh) pathway - cell viability counter screen (AID 1259367); also: nearly all actives have a fitted effect of over 55% in size; also: potency is read from the fitted curve at half-maximal effect
# Outline: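 Cytotoxicity was assessed in parallel with Shh reporter activity by measuring live-cell protease fluorescence (CellTiter-Fluor) in NIH/3T3 cells stably carrying Gli1-Luc, treated with compound under conditioned medium stimulation for 23 hr plus 1 hr reagent incubation.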
# [7] = qHTS assay to identify small molecule antagonists of the estrogen receptor beta (ER-beta) signaling pathway - cell viability counter screen (AID 1259382); also: nearly all actives have a fitted effect of over 55% in size; also: potency is read from the fitted curve at half-maximal effect
# Outline: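 Readout: luminescence, CellTiter-Glo, same wells as bla assay. System: ER-beta-UAS-bla GripTite HEK293T, 2% charcoal-stripped FBS. Exposure: compounds plus 1nM 17-beta-estradiol, 16 hr, 37C.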
# [8] = target: Progesterone receptor (Homo sapiens) (UniProt P06401); experiment: qHTS assay to identify small molecule antagonists of the progesterone receptor (PR) signaling pathway (AID 1346795; active = well fitted inhibition curve with a large enough effect in the signal ratio in the repeat runs, not every such curve was filed as active; inconclusive = weak or mixed curves; the % refers to the signal ratio; also: potency is read from the fitted curve at half-maximal effect; as to activity change, negative = inhibition: % is scaled to controls: 0 for no effect and ±100 for the full control effect); conditions: PR-UAS-bla HEK293T, beta-lactamase FRET ratio, 16 h
# Outline: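 Antagonist mode: compounds tested against 1 nM (final) promegestone stimulation in HEK293T cells expressing PR-UAS-bla reporter, 16 hr at 37C, 5% CO2; beta-lactamase activity detected via B/G FRET substrate after 2 hr at room temperature.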
# [9] = target: Thyrotropin receptor (Homo sapiens) (UniProt P16473); experiment: qHTS assay to identify small molecule antagonists of the thyroid stimulating hormone receptor (TSHR) signaling pathway (AID 1259385; calls by dose curve; also: potency is read from the fitted curve at half-maximal effect; nearly all actives have a fitted effect of over 20% in size); conditions: TSHR-HEK293 cAMP HTRF, TSH-stimulated antagonist mode; activity change, negative = inhibition: at 92.4 µM (top of the series) unless noted
# Outline: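 TSHR-HEK293 cells were plated and held 18 h at 37C/5% CO2, then given compound plus Ro20-1724 and stimulated with TSH at 1.5 ng/mL final. After 30 min at room temperature, cAMP was detected with cAMP-d2/anti-cAMP-cryptate (1 h) by fluorescence.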
# [10] = qHTS assay to identify small molecule antagonists of the progesterone receptor (PR) signaling pathway - cell viability counter screen (AID 1346798); also: potency is read from the fitted curve at half-maximal effect; nearly all actives have a fitted effect of over 50% in size
# Outline: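 Counter screen for cytotoxicity: viability of PR-UAS-bla HEK293T cells was measured with CellTiter-Glo luminescence following 16 hr compound exposure in the presence of R5020.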
# [11] = qHTS assay to identify small molecule antagonists of the sonic hedgehog signaling (Shh) pathway (AID 1259369; calls by dose curve; also: potency is read from the fitted curve at half-maximal effect; nearly all actives have a fitted effect of over 45% in size)
# Outline: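 NIH/3T3 stable Gli1-Luc clone, 2,000 cells/well, 4hr settle; cpd + conditioned medium 24hr; Luc reagent 30min RT; luminescence.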
# [12] = qHTS assay to identify small molecule agonists of the androgen receptor (AR) signaling pathway in the presence of an antagonist - cell viability counter screen (AID 1259379); also: potency is read from the fitted curve at half-maximal effect; nearly all actives have a fitted effect of over 25% in size
# Outline: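 MDA-kb2 viability measured by CellTiter-Fluor fluorescence in the same wells as the luciferase signal; nilutamide 3.0uM final; 15-point compound titration; 16 hr at 37C.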
# [13] = qHTS assay to identify small molecule agonists of the estrogen receptor alpha (ER-alpha) signaling pathway in the presence of an antagonist - cell viability counter screen (AID 1259386);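 also: potency is read from the fitted curve at half-maximal effect; cells exposed to compounds for 22 h at 37 °C before the viability read; nearly all actives have a fitted effect of over 30% in size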
# Outline: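 The test measures whether compounds kill ER-alpha reporter cells (VM7Luc4E2) under antagonist co-treatment (ICI-182,780, 10.0nM). Fluorescence from CellTiter-Fluor is read after a 22hr exposure.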
# Tags tell the direction and shape of the fitted curve or compound fluorescence and quenching.
# UniProt P06401, sequence (P06401 whole entry, looked up): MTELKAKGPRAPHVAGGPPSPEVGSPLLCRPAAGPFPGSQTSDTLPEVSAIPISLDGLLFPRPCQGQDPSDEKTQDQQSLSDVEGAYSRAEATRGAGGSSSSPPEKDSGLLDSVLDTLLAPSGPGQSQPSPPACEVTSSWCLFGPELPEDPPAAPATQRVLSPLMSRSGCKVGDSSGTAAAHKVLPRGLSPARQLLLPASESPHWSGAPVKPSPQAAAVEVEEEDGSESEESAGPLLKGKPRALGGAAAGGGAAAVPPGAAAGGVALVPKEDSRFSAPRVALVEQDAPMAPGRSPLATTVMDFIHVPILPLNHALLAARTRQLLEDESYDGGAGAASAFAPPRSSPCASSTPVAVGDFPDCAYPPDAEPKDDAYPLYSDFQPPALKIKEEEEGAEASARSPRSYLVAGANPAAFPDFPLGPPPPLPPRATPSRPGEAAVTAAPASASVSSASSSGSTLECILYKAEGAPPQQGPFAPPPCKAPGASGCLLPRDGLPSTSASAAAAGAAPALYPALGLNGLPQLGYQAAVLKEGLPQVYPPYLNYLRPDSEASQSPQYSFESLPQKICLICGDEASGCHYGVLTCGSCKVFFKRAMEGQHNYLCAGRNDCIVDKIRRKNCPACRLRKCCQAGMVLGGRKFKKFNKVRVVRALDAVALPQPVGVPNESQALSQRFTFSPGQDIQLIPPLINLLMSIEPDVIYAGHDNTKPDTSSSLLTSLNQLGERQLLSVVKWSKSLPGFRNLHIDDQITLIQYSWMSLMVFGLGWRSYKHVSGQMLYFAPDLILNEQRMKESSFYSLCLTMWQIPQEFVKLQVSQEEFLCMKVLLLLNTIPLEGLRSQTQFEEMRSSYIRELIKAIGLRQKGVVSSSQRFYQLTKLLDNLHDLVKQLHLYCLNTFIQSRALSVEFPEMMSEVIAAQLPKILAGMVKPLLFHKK
# UniProt Q92731, sequence (Q92731 whole entry, looked up): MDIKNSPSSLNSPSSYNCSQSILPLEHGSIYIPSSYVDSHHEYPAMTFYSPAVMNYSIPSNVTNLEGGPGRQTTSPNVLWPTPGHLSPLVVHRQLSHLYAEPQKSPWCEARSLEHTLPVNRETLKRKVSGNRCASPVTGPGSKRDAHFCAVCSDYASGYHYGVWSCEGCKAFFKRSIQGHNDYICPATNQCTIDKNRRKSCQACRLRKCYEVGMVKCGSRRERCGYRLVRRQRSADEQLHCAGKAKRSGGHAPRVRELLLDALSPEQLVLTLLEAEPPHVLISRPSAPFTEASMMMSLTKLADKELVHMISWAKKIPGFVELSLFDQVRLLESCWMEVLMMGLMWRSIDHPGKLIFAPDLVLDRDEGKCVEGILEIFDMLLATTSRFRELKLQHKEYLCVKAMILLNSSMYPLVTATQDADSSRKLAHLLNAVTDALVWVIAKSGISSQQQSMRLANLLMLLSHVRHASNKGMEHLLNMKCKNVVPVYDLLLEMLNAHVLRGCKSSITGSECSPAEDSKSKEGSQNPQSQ
# UniProt P16473, sequence (P16473 whole entry, looked up): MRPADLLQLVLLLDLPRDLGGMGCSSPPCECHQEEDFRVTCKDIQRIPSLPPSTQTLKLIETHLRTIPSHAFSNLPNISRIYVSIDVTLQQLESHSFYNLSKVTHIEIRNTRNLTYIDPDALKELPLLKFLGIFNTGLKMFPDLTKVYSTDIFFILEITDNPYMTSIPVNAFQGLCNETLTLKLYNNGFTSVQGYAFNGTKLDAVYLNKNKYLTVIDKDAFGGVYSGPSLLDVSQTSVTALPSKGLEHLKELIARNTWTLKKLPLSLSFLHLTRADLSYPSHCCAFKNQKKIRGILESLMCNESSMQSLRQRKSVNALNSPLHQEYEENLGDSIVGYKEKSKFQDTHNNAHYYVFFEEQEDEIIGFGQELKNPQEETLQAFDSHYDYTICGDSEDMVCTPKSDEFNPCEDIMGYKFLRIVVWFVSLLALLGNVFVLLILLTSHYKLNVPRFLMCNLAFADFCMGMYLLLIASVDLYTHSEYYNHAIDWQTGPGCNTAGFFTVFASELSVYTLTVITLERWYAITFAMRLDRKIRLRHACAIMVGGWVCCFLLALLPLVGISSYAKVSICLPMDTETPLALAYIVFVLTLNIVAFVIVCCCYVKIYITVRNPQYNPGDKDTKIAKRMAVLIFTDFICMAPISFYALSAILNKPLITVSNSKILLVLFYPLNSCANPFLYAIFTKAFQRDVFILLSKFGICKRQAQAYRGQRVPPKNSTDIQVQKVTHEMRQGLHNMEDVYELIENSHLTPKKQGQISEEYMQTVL
structure (smiles),measurement,setting,value
CCSC(=O)Cl,Potency,[1],"inconclusive: 56.8 µM [activator, partial curve]"
same,Potency,[2],inactive
same,Potency,[3],"inconclusive: 45.1 µM [rising, partial curve, poor fit]"
same,Potency,[4],inactive
same,Potency,[5],inactive
Oc1c(Br)cc(Br)cc1Br,Potency,[6],"inconclusive: 86.3 µM [rising, partial curve, poor fit]"
same,"activity, negative = inhibition",[2],inconclusive: -55.6%
same,Potency,[3],"inconclusive: 13.7 µM [cytotoxic, single point]"
same,Potency,[7],"inactive and inconclusive: 24.3 µM [cytotoxic, partial curve]"
same,activation,[4],inconclusive: 15.2%
same,Potency,"[8]; activity change, negative = inhibition: at 92.4 µM (top of the series) unless noted","inconclusive: 61.3 µM [falling, partial curve, poor fit]"
same,"activity change, negative = inhibition",[8]; at 42.5 µM (top of the series),inconclusive: -15.5%
same,"activity change, negative = inhibition",[8]; at 92.4 µM (top of the series),inconclusive: -34.3%
O=C(NC(=O)c1c(F)cccc1F)Nc1cc(Cl)c(OC(F)(F)C(F)C(F)(F)F)cc1Cl (stereo not drawn),Potency,[6],inactive
same,"activity, negative = inhibition",[2],inconclusive: 4.48%
same,Potency,[3],inactive
same,Potency,[9],"inconclusive: 26.6 µM [falling, partial curve]"
same,"activity change, negative = inhibition",[8]; at 42.5 µM (top of the series),inconclusive: -16.8%
same,"activity change, negative = inhibition",[8]; at 92.4 µM (top of the series),inconclusive: -15.5%
same,Potency,[10],"inconclusive: 7.5 µM [rising, full curve]"
Cc1ccc(N)cc1N,Potency,[1],"inconclusive: 26.6 µM [activator, partial curve] and inconclusive: 30.6 µM [activator, partial curve, poor fit]"
CCCN(CCOc1c(Cl)cc(Cl)cc1Cl)C(=O)n1ccnc1,Potency,[1],inactive
same,Potency,[11],"inconclusive: 3.86 µM [inhibitor, full curve]"
same,Potency,[2],"inconclusive: 70.1 µM [inhibitor, single point] and inconclusive: 68.6 µM [inhibitor, single point]"
same,Potency,[12],inconclusive: 70.1 µM [cytotoxic]
same,Potency,[3],"inconclusive: 0.313 µM [cytotoxic, single point]"
same,Potency,[7],"inconclusive: 35.1 µM [cytotoxic, partial curve, poor fit]"
same,Potency,[13],inconclusive: 70.1 µM [cytotoxic]
